Assay results published in the supplement of paper PMC10369915.
The list shows a part of the results. Rule as the data show it: active = 3.2 or more and inactive = the rest. Most of these values are background signal.

Legend:
Assay in all cases: enrichment score (SH2-bound / input frequency) (ratio); bacterial display of known human phosphotyrosine sites (pTyr-Var adds point mutants) read by sequencing; higher = stronger binding; tyrosines were phosphorylated by kinases first
Conditions in all cases: peptide library: pTyr-Var
SHP2 C-SH2 domain E139D = target: SHP2 C-SH2 domain E139D
[1] = target: SHP2 C-SH2 domain wild-type
SHP2 N-SH2 domain L43F = target: SHP2 N-SH2 domain L43F
SHP2 N-SH2 domain T42A = target: SHP2 N-SH2 domain T42A
SHP2 N-SH2 domain T52S = target: SHP2 N-SH2 domain T52S
[2] = target: SHP2 N-SH2 domain wild-type

Measured: enrichment score
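Also: displayed peptides selected on beads carrying the immobilized SH2 domain, with library peptides lacking any tyrosine serving as negative controls.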

SPYAVYLFFTF [RPGRIP1_Y826_R827L]
inactive: SHP2 C-SH2 domain E139D 0.681 | [1] 0.932 | SHP2 N-SH2 domain L43F 0.802 | SHP2 N-SH2 domain T42A 0.706 | SHP2 N-SH2 domain T52S 0.621 | [2] 0.715

IRTDAYVQAMT [RPE65_Y89_R91Q]
inactive: SHP2 C-SH2 domain E139D 0.898 | [1] 0.794 | SHP2 N-SH2 domain L43F 0.881 | SHP2 N-SH2 domain T42A 0.604 | SHP2 N-SH2 domain T52S 0.969 | [2] 0.887

ALKKPYSVLYK [RPF2_Y59_G60S]
inactive: SHP2 C-SH2 domain E139D 2.76 | [1] 2.38 | SHP2 N-SH2 domain L43F 2.48 | SHP2 N-SH2 domain T42A 1.97 | SHP2 N-SH2 domain T52S 2.53 | [2] 2.37

TQPSPYAVFLF [RPGRIP1_Y823_R827L_YF]
inactive: SHP2 C-SH2 domain E139D 0.745 | [1] 0.752 | SHP2 N-SH2 domain L43F 0.735 | SHP2 N-SH2 domain T42A 0.851 | SHP2 N-SH2 domain T52S 0.651 | [2] 0.885

FKGKNYKPLDL [RPL35_Y78_K77N_YF]
inactive: SHP2 C-SH2 domain E139D 0.988 | [1] 0.785 | SHP2 N-SH2 domain L43F 0.808 | SHP2 N-SH2 domain T42A 0.718 | SHP2 N-SH2 domain T52S 0.931 | [2] 0.723

GDKKAYVRLAP [RPL23A_Y137_E133D]
inactive: SHP2 C-SH2 domain E139D 0.696 | [1] 0.605 | SHP2 N-SH2 domain L43F 0.548 | SHP2 N-SH2 domain T42A 0.593 | SHP2 N-SH2 domain T52S 0.543 | [2] 0.695

GEKKAYVRLAP [RPL23A_Y137]
inactive: SHP2 C-SH2 domain E139D 0.829 | [1] 0.853 | SHP2 N-SH2 domain L43F 0.816 | SHP2 N-SH2 domain T42A 0.757 | SHP2 N-SH2 domain T52S 0.651 | [2] 0.9

TQPSPYAVFRF [RPGRIP1_Y823_YF]
inactive: SHP2 C-SH2 domain E139D 0.974 | [1] 0.992 | SHP2 N-SH2 domain L43F 1.09 | SHP2 N-SH2 domain T42A 1.42 | SHP2 N-SH2 domain T52S 1.04 | [2] 0.82

TQPSPYAVYLF [RPGRIP1_Y823_R827L]
inactive: SHP2 C-SH2 domain E139D 0.993 | [1] 1.41 | SHP2 N-SH2 domain L43F 1.23 | SHP2 N-SH2 domain T42A 1.16 | SHP2 N-SH2 domain T52S 1.29 | [2] 1.34

FKGKKYKPLDL [RPL35_Y78_YF]
inactive: SHP2 C-SH2 domain E139D 0.516 | [1] 0.462 | SHP2 N-SH2 domain L43F 0.614 | SHP2 N-SH2 domain T42A 0.49 | SHP2 N-SH2 domain T52S 0.427 | [2] 0.494

TQPSPYAVYRF [RPGRIP1_Y823]
inactive: SHP2 C-SH2 domain E139D 0.938 | [1] 0.754 | SHP2 N-SH2 domain L43F 0.517 | SHP2 N-SH2 domain T42A 0.612 | SHP2 N-SH2 domain T52S 0.625 | [2] 0.792

IHTDAYVRAMT [RPE65_Y89_R85H]
inactive: SHP2 C-SH2 domain E139D 0.806 | [1] 0.754 | SHP2 N-SH2 domain L43F 0.717 | SHP2 N-SH2 domain T42A 0.734 | SHP2 N-SH2 domain T52S 0.696 | [2] 0.907

DMLFQYLKQIE [RPAP3_Y569_YF]
inactive: SHP2 C-SH2 domain E139D 1.24 | [1] 1.22 | SHP2 N-SH2 domain L43F 1.23 | SHP2 N-SH2 domain T42A 1.17 | SHP2 N-SH2 domain T52S 1.17 | [2] 1.21

QNVADYMRYLM [RPL5_Y207]
inactive: SHP2 C-SH2 domain E139D 0.933 | [1] 0.736 | SHP2 N-SH2 domain L43F 0.808 | SHP2 N-SH2 domain T42A 0.706 | SHP2 N-SH2 domain T52S 0.872 | [2] 0.771

ICANKYMVESC [RPL10_Y75_K78E]
inactive: SHP2 C-SH2 domain E139D 1.78 | [1] 1.65 | SHP2 N-SH2 domain L43F 2.1 | SHP2 N-SH2 domain T42A 1.71 | SHP2 N-SH2 domain T52S 1.77 | [2] 1.7

VPLATYMQIFK [RPL21_Y30_R32Q_YF]
inactive: SHP2 C-SH2 domain E139D 1.32 | [1] 0.75 | SHP2 N-SH2 domain L43F 0.988 | SHP2 N-SH2 domain T42A 0.865 | SHP2 N-SH2 domain T52S 0.811 | [2] 0.725

IRTDAYVRAMT [RPE65_Y89]
inactive: SHP2 C-SH2 domain E139D 0.772 | [1] 0.647 | SHP2 N-SH2 domain L43F 0.701 | SHP2 N-SH2 domain T42A 0.584 | SHP2 N-SH2 domain T52S 0.645 | [2] 0.803

KRIKLYNQEND [RPGRIP1L_Y448]
inactive: SHP2 C-SH2 domain E139D 1.02 | [1] 0.769 | SHP2 N-SH2 domain L43F 0.788 | SHP2 N-SH2 domain T42A 0.787 | SHP2 N-SH2 domain T52S 0.74 | [2] 0.769

RRGTRYMSSRP [RPL21_Y13_F15S]
inactive: SHP2 C-SH2 domain E139D 0.187 | [1] 0.176 | SHP2 N-SH2 domain L43F 0.238 | SHP2 N-SH2 domain T42A 0.307 | SHP2 N-SH2 domain T52S 0.305 | [2] 0.228
